The supplement of paper PMC12578646, “Prodrug florfenicol amine is activated by intrinsic resistance to target Mycobacterium abscessus” (Nature Microbiology, 2025)
± gives the standard deviation of the averaged measurements. M. abscessus ATCC 19977 and its deletion, point and complemented mutants after 5 days of drug at 37 °C plus 24 h of resazurin. Growth in % of untreated wells at the dose given (lower = more inhibition); checkerboards give % inhibition (higher = more inhibition); IC50 from the fitted curve (lower = more potent). No active / inactive call. IC50 values come from the same 384-well curves. Growth is not capped and can exceed 100%. The direction of the checkerboard scale is read from the raw signals. Capreomycin is a mixture.

What was measured:
Experiment in all cases: growth relative to untreated wells; higher = more growth (less inhibition)
[1] = tested on: Mycobacterium abscessus ATCC 19977 Eis2 E120fs
Procedure: (§1)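 384-well two-fold dose series, two replicates; 5 days at 37 °C, then 24 h with resazurin; fluorescence scaled to growth and killed controls.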

[2] = tested on: Mycobacterium abscessus ATCC 19977 Eis2 T258R
Procedure: as §1

[3] = tested on: Mycobacterium abscessus ATCC 19977 Eis2 Y227D
Procedure: as §1

[4] = tested on: Mycobacterium abscessus ATCC 19977 Eis2 Y255*
Procedure: as §1

[5] = tested on: Mycobacterium abscessus ATCC 19977 Eis2 Y284*
Procedure: as §1

[6] = tested on: Mycobacterium abscessus ATCC 19977 WhiB7 F24fs
Procedure: as §1

[7] = tested on: Mycobacterium abscessus ATCC 19977 WhiB7 L37P
Procedure: as §1

[8] = tested on: Mycobacterium abscessus ATCC 19977 WhiB7 R76del
Procedure: as §1

[9] = tested on: Mycobacterium abscessus ATCC 19977 WhiB7 T70fs
Procedure: as §1

[10] = tested on: Mycobacterium abscessus ATCC 19977 Δeis2
Procedure: as §1

[11] = tested on: Mycobacterium abscessus ATCC 19977 ΔwhiB7
Procedure: as §1

[12] = tested on: Mycobacterium abscessus ATCC 19977
Procedure: as §1

CO[C@@]1(NC(=O)Cc2cccs2)C(=O)N2C(C(=O)O)=C(COC(N)=O)CS[C@@H]21 [cefoxitin]
Conditions	growth [%]
[1], 0.5 µg/mL	100 ± 1.2
[1], 1 µg/mL	114 ± 8.5
[1], 2 µg/mL	113.5 ± 0.77
[1], 4 µg/mL	118 ± 8.3
[1], 8 µg/mL	128 ± 6.6
[1], 16 µg/mL	-2.18 ± 1.4
[1], 32 µg/mL	-4.46 ± 2
[1], 64 µg/mL	-7.35 ± 0.6
[1], 128 µg/mL	-8.292 ± 0.031
[1], 256 µg/mL	-7.79 ± 0.13
[1], 512 µg/mL	-5.79 ± 0.091
[1], 1024 µg/mL	-0.568 ± 0.72
[2], 0.5 µg/mL	87.6 ± 8.5
[2], 1 µg/mL	103 ± 12
[2], 2 µg/mL	99.5 ± 4.9
[2], 4 µg/mL	110 ± 15
[2], 8 µg/mL	125 ± 7.3
[2], 16 µg/mL	12.9 ± 17
[2], 32 µg/mL	-5.76 ± 0.31
[2], 64 µg/mL	-7.078 ± 0.02
[2], 128 µg/mL	5.19 ± 18
[2], 256 µg/mL	-7.66 ± 0.17
[2], 512 µg/mL	-5.915 ± 0.054
[2], 1024 µg/mL	-1.41 ± 0.18
[3], 0.5 µg/mL	101 ± 1.3
[3], 1 µg/mL	109 ± 8
[3], 2 µg/mL	104 ± 1.8
[3], 4 µg/mL	111 ± 11
[3], 8 µg/mL	141 ± 2.2
[3], 16 µg/mL	4.68 ± 5.2
[3], 32 µg/mL	1.32 ± 6.1
[3], 64 µg/mL	-6.61 ± 0.14
[3], 128 µg/mL	-6.83 ± 0.12
[3], 256 µg/mL	-6.41 ± 0.37
[3], 512 µg/mL	-4.56 ± 0.4
[3], 1024 µg/mL	0.763 ± 0.19
[4], 0.5 µg/mL	94.3 ± 8.8
[4], 1 µg/mL	98.5 ± 5
[4], 2 µg/mL	102 ± 4.5
[4], 4 µg/mL	126 ± 1.4
[4], 8 µg/mL	138.08 ± 0.09
[4], 16 µg/mL	6.801 ± 0.02
[4], 32 µg/mL	1.23 ± 7.6
[4], 64 µg/mL	-8.67 ± 2.6
[4], 128 µg/mL	-4.4 ± 10
[4], 256 µg/mL	-8.98 ± 2.1
[4], 512 µg/mL	-6.79 ± 2.2
[4], 1024 µg/mL	-1.06 ± 1.4
[5], 0.5 µg/mL	101 ± 5.6
[5], 1 µg/mL	104 ± 3.2
[5], 2 µg/mL	99.7 ± 2.8
[5], 4 µg/mL	114 ± 3.5
[5], 8 µg/mL	130 ± 7.2
[5], 16 µg/mL	-1.63 ± 0.6
[5], 32 µg/mL	9.05 ± 14
[5], 64 µg/mL	-7.27 ± 0.29
[5], 128 µg/mL	-8.12 ± 0.15
[5], 256 µg/mL	-7.34 ± 0.19
[5], 512 µg/mL	-5.53 ± 0.086
[5], 1024 µg/mL	-0.739 ± 0.14
[6], 0.5 µg/mL	98.971 ± 0.038
[6], 1 µg/mL	107 ± 3
[6], 2 µg/mL	103 ± 3.3
[6], 4 µg/mL	118 ± 2.6
[6], 8 µg/mL	128 ± 4.8
[6], 16 µg/mL	10.5 ± 2.5
[6], 32 µg/mL	-4.02 ± 0.15
[6], 64 µg/mL	-6.88 ± 0.51
[6], 128 µg/mL	-2.17 ± 8.1
[6], 256 µg/mL	-7.35 ± 0.17
[6], 512 µg/mL	-5.57 ± 0.44
[6], 1024 µg/mL	-0.726 ± 0.045
[7], 0.5 µg/mL	97.5 ± 2.6
[7], 1 µg/mL	105 ± 14
[7], 2 µg/mL	100 ± 2.1
[7], 4 µg/mL	100 ± 18
[7], 8 µg/mL	128 ± 2.9
[7], 16 µg/mL	34.3 ± 16
[7], 32 µg/mL	-2.93 ± 1.8
[7], 64 µg/mL	-6.61 ± 0.11
[7], 128 µg/mL	-7.1 ± 0.095
[7], 256 µg/mL	-6.74 ± 0.56
[7], 512 µg/mL	-4.8 ± 0.14
[7], 1024 µg/mL	0.562 ± 0.23
[8], 0.5 µg/mL	103 ± 8.9
[8], 1 µg/mL	115 ± 6.1
[8], 2 µg/mL	102 ± 12
[8], 4 µg/mL	114 ± 6.1
[8], 8 µg/mL	129 ± 10
[8], 16 µg/mL	5.49 ± 7.3
[8], 32 µg/mL	-4.59 ± 0.55
[8], 64 µg/mL	-7.42 ± 0.57
[8], 128 µg/mL	-5.69 ± 2.9
[8], 256 µg/mL	-7.03 ± 0.56
[8], 512 µg/mL	-5.4 ± 0.43
[8], 1024 µg/mL	-0.564 ± 0.34
[9], 0.5 µg/mL	81.4 ± 16
[9], 1 µg/mL	111 ± 1.4
[9], 2 µg/mL	96.3 ± 3.1
[9], 4 µg/mL	113 ± 11
[9], 8 µg/mL	130 ± 3.3
[9], 16 µg/mL	9.85 ± 17
[9], 32 µg/mL	-3.41 ± 6.2
[9], 64 µg/mL	-9.17 ± 1.9
[9], 128 µg/mL	-9 ± 2
[9], 256 µg/mL	-8.77 ± 0.82
[9], 512 µg/mL	-6.76 ± 0.8
[9], 1024 µg/mL	-2.23 ± 0.52
[10], 0.5 µg/mL	93.9 ± 2.8
[10], 1 µg/mL	104 ± 6.5
[10], 2 µg/mL	88.4 ± 3
[10], 4 µg/mL	120.3 ± 0.71
[10], 8 µg/mL	90.9 ± 38
[10], 16 µg/mL	-3.53 ± 1.4
[10], 32 µg/mL	-6.32 ± 1.1
[10], 64 µg/mL	-7.97 ± 0.49
[10], 128 µg/mL	-8.106 ± 0.061
[10], 256 µg/mL	9.32 ± 24
[10], 512 µg/mL	-6.3 ± 0.74
[10], 1024 µg/mL	-1.49 ± 1.7
[11], 0.5 µg/mL	90.6 ± 2.1
[11], 1 µg/mL	102 ± 8.6
[11], 2 µg/mL	103 ± 2.1
[11], 4 µg/mL	106.2 ± 0.48
[11], 8 µg/mL	114.7 ± 0.19
[11], 16 µg/mL	47.2 ± 31
[11], 32 µg/mL	-0.915 ± 9.3
[11], 64 µg/mL	-9.58 ± 4.5
[11], 128 µg/mL	-8.92 ± 6.5
[11], 256 µg/mL	-9.85 ± 4.8
[11], 512 µg/mL	-7.86 ± 5.2
[11], 1024 µg/mL	-2.91 ± 4.9
[12], 0.5 µg/mL	101.2 ± 0.28
[12], 1 µg/mL	110 ± 2.8
[12], 2 µg/mL	96.8 ± 8.3
[12], 4 µg/mL	114 ± 4.5
[12], 8 µg/mL	123 ± 19
[12], 16 µg/mL	24.6 ± 4.8
[12], 32 µg/mL	50.6 ± 77
[12], 64 µg/mL	-6.47 ± 1.1
[12], 128 µg/mL	-7.723 ± 0.021
[12], 256 µg/mL	-7.06 ± 0.7
[12], 512 µg/mL	-5.88 ± 0.47
[12], 1024 µg/mL	-0.901 ± 0.3
